According to PubChem BioAssay AID624417 (National Center for Advancing Translational Sciences (NCATS), 2012):
Values joined by “and” are separate entries in the source; they are usually repeats but may differ in a detail not shown here. Equal values may be shown once. The whole screen tested about 410,000 compounds, of which about 6,400 (1.6%) were called active. This list was built around the results that the source calls inconclusive (neither active nor inactive); the mix of calls is not that of the screen. The call rests on the fitted dose curve; in most records, active means well fitted inhibition curve with a large enough effect; inconclusive means small, poorly fitted or top-dose-only effect; inactive means no such curve, though single readings can be large or run the other way. A potency beside an inconclusive call is a rough fit, not a confirmed value.

These compounds were tested against Glucagon-like peptide 1 receptor (Homo sapiens) (UniProt P43220) (assay: qHTS of GLP-1 Receptor Inverse Agonists (Inhibition Mode)). Conditions: HEK293 GLP-1R CRE-luciferase, luminescence, 24 h, GLP-1R form is constitutively active; series mostly up to 38.3 µM.
Summary of the method: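 Inverse agonists were sought by their lowering of basal cAMP reporter luciferase output in HEK293 cells stably carrying constitutively active human GLP-1R, after 24 h compound treatment.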
Further: nearly all actives have a fitted effect of over 55% in size.
Potency means the concentration at half of the fitted maximal effect; tags describe the fitted curve by direction and shape.

Chain of UniProt P43220 (P43220 whole entry, looked up): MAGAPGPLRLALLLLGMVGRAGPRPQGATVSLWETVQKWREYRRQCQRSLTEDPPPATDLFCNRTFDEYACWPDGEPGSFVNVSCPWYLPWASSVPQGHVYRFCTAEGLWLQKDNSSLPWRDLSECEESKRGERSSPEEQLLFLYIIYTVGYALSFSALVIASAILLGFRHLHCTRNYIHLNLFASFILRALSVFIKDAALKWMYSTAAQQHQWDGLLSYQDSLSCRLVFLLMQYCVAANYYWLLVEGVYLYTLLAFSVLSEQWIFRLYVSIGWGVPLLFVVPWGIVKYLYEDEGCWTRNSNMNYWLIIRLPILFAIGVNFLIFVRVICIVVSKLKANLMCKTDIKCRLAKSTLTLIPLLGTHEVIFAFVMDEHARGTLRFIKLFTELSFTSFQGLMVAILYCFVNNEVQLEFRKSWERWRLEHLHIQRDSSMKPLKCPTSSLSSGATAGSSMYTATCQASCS

Row | SMILES | Potency
1 | COc1ccc(C)cc1NC(=S)N1CC(C)OC(C)C1 (stereo not given) | inactive
2 | Cc1ccc(C)c2nc3sc(C(=O)N4CCOCC4)c(N)c3cc12 | inconclusive: 6.31 µM [inhibitor, partial curve, poor fit]
3 | COc1ccccc1N/C(=N/S(=O)(=O)c1ccc(C)cc1)c1ccc(Cl)cc1 | inconclusive: 2 µM [inhibitor, full curve]
4 | Cc1cc(C=O)c(C)n1-c1cc(C(=O)O)cc(C(=O)O)c1 | inactive
5 | CCCNC(=O)c1noc2c1CCc1ccccc1-2 | inconclusive: 28.2 µM [inhibitor, single point]
6 | Cc1ccc(SCC(=O)Nc2ccccc2C(=O)O)cc1 | inactive
7 | COCc1c(C(=O)N2CCN(S(=O)(=O)c3ccccc3Cl)CC2)oc2ccccc12 | inconclusive: 28.2 µM [inhibitor, single point]
8 | CC(C)c1ccc(NC(=S)N(C)CCc2ccccn2)cc1 | inconclusive: 11.2 µM [inhibitor, partial curve, poor fit]
9 | COc1ccc(S(=O)(=O)N(Cc2ccccc2)c2ccccc2C(=O)N2CCOCC2)cc1 | inconclusive: 14.1 µM [inhibitor, partial curve, poor fit]
10 | Cc1ccc(C(NC(=O)N2CCCC2)C(Cl)(Cl)Cl)cc1F (stereo not given) | inconclusive: 12.6 µM [inhibitor, partial curve, poor fit]
11 | Nc1nonc1-n1nnc(C(=O)N/N=C/c2c[nH]c3ccccc23)c1-c1ccccc1 | active: 12.6 µM
12 | CC(Sc1nnnn1-c1ccccc1)C(=O)Nc1ccc(Cl)cn1 (stereo not given) | inconclusive: 5.01 µM [inhibitor, partial curve]
13 | CC1CCCN(S(=O)(=O)c2cnc[nH]2)C1 (stereo not given) | inactive
14 | COc1cccc(N2C(=O)C(CC(=O)Nc3ccccc3)N(CCc3sccc3C)C2=O)c1 (stereo not given) | inconclusive: 15.8 µM [inhibitor, single point]
15 | Cc1cc(C(=O)OCC(=O)N2c3ccccc3NC(=O)C2(C)C)c(C)n1-c1ccccc1 | inconclusive: 28.2 µM [inhibitor, single point]
16 | COc1ccc(CCNC(=O)c2ccccc2NC(=O)C2=C(C)OCCS2)c(OC)c1 | inconclusive: 31.6 µM [inhibitor, partial curve, poor fit]
17 | NC(=O)c1cc2ccccc2oc1=NCc1ccccc1 | inconclusive: 10 µM [inhibitor, single point]
18 | COc1ccc(CCC(=O)NCC23CC4CC(CC(C4)C2)C3)cc1 | active: 6.31 µM
19 | COc1ccccc1CN(C)C(=O)c1cc(S(=O)(=O)N2CCCCCC2)ccc1OC | inconclusive: 12.6 µM [inhibitor, single point]
20 | CN(CC(=O)N(C)CC(=O)Nc1c(Cl)cccc1Cl)Cc1ccc(Br)s1 | inconclusive: 11.2 µM [inhibitor, single point]

Row | SMILES | Potency
21 | COc1ccc(OC)c(C(c2nnnn2C2CCCC2)N2CCN(c3ccccc3)CC2)c1 (stereo not given) | inconclusive: 14.1 µM [inhibitor, partial curve, poor fit]
22 | O=C(NC1CCSc2ccccc21)c1cccc([N+](=O)[O-])c1 (stereo not given) | inconclusive: 11.2 µM [inhibitor, single point]
23 | CCCCN(Cc1ccccc1)S(=O)(=O)c1ccc2[nH]c(=O)oc2c1 | inconclusive: 20 µM [inhibitor, partial curve, poor fit]
24 | COc1ccc(OCCCC(=O)Nc2cccc(S(=O)(=O)N3CCCCCC3)c2)cc1 | inconclusive: 22.4 µM [inhibitor, partial curve, poor fit]
25 | COc1ccc(CN2CCN(Cc3ccc(C(F)(F)F)cc3)CC2)cc1 | inconclusive: 28.2 µM [inhibitor, single point]
26 | CCOc1ccc(N(C)S(=O)(=O)c2cc(-c3cc(C)no3)ccc2OC)cc1 | inconclusive: 7.08 µM [inhibitor, partial curve] and inconclusive: 15.8 µM [inhibitor, single point]
27 | O=C(O)c1cc([N+](=O)[O-])ccc1NCCc1ccccc1 | inconclusive: 2.24 µM [inhibitor, full curve]
28 | COc1cccc(CNC(=O)CCC2CCCN(Cc3ccc(OC(F)F)cc3)C2)c1 (stereo not given) | inconclusive: 10 µM [inhibitor, partial curve, poor fit]
29 | CN(C(=O)C1Cc2c(-c3ccccc3Oc3ccccc3)ccnc2O1)c1ccccc1 (stereo not given) | inconclusive: 3.16 µM [inhibitor, partial curve]
30 | COc1ccc(NC(=O)CN2C(=O)NC(C)(c3ccccc3)C2=O)cc1Cl (stereo not given) | inconclusive: 28.2 µM [inhibitor, single point]
31 | COc1cccc(/C=N/Nc2snc(SC)c2C#N)c1 | inconclusive: 3.55 µM [inhibitor, partial curve, poor fit]
32 | CCOc1cc(CNc2ccc(N3CCCCC3)cc2)cc(Br)c1OCC(=O)NC(C)(C)C | inconclusive: 11.2 µM [inhibitor, partial curve, poor fit]
33 | Cc1onc(-c2ccccc2)c1C(=O)Nc1ncc([N+](=O)[O-])s1 | inconclusive: 5.62 µM [inhibitor, partial curve]
34 | C=CCNC(=O)c1onc(CSc2ccc(F)cc2)c1C(=O)NCC=C | inactive
35 | CN(Cc1ccccc1)C(=O)c1ccc(Nc2nc(C(N)COCc3ccccc3)cs2)nc1 (stereo not given) | inconclusive: 25.1 µM [inhibitor, single point]
36 | O=S(=O)(Nc1ccc2c(c1)OCO2)c1ccc(F)c(F)c1 | inconclusive: 3.16 µM [inhibitor, partial curve, poor fit]
37 | CCOC(=O)Nc1c(C(=O)OC)[nH]c2cc(OC)ccc12 | inactive
38 | CCOc1cc(CNCCc2ccc(S(N)(=O)=O)cc2)ccc1OCC(=O)NC1CCCCC1 | inconclusive: 3.55 µM [inhibitor, partial curve, poor fit]
39 | Cc1[nH]c2ccccc2c1/C=N/NC(=O)CNC(=O)c1ccc2c(c1)OCCO2 | inconclusive: 1.41 µM [inhibitor, full curve, poor fit]
40 | Cc1ccc(CN(C(=O)c2ccc(F)cc2)c2ccccn2)o1 | inactive
